The other results are listed elsewhere or left out.
What was measured:
Assay in all cases: glycan array binding signal (z-score within array); higher = stronger binding
Conditions in all cases: glycan notation: IUPAC condensed, linker removed
[1] = target: Gal6S(b1-4)Glc
How it was run: (§1)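 Glycan array binding is given as a within-array Z-score, which can be read as non-binding when negative. The arrays, 3228 of them, came from the Consortium for Functional Glycomics database and were retained only where the protein sequence was available. Z-scores were averaged across arrays of the same protein sequence at different concentrations or buffers and across linkers.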

[2] = target: Gal6S(b1-4)Glc6S
How it was run: as §1

[3] = target: Gal6S(b1-4)GlcNAc
How it was run: as §1

[4] = target: Gal6S(b1-4)GlcNAc6S
How it was run: as §1

[5] = target: GalNAc(a1-3)Gal
How it was run: as §1

[6] = target: GalNAc(a1-3)GalNAc
How it was run: as §1

[7] = target: GalNAc(a1-3)GalNAc(b1-3)Gal(a1-4)Gal(b1-4)Glc
How it was run: as §1

[8] = target: GalNAc(a1-3)GalNAc(b1-3)Gal(a1-4)Gal(b1-4)GlcNAc
How it was run: as §1

[9] = target: GalNAc(b1-3)Gal
How it was run: as §1

[10] = target: GalNAc(b1-3)Gal(a1-4)Gal(b1-4)GlcNAc
How it was run: as §1

[11] = target: GalNAc(b1-3)Gal(a1-4)Gal(b1-4)GlcNAc(b1-3)Gal(b1-4)Glc
How it was run: as §1

[12] = target: GalNAc(b1-3)Gal(a1-6)Gal(b1-4)Glc
How it was run: as §1

[13] = target: GalNAc(b1-3)GalNAc
How it was run: as §1

[14] = target: GalNAc(b1-3)GlcNAc
How it was run: as §1

[15] = target: GalNAc(b1-4)Gal(b1-4)Glc
How it was run: as §1

[16] = target: GalNAc(b1-4)GlcNAc
How it was run: as §1

[17] = target: GalNAc(b1-4)GlcNAc(b1-2)Man
How it was run: as §1

[18] = target: GalNAc(b1-4)GlcNAc(b1-2)Man(a1-3)[GalNAc(b1-4)GlcNAc(b1-2)Man(a1-6)]Man(b1-4)GlcNAc(b1-4)GlcNAc
How it was run: as §1

[19] = target: GalNAc(b1-4)GlcNAc(b1-3)GalNAc(b1-4)GlcNAc
How it was run: as §1

[20] = target: GalNAc(b1-4)GlcNAc6S
How it was run: as §1

[21] = target: GalNAc(b1-6)GalNAc
How it was run: as §1

[22] = target: GalNAc3S(b1-4)GlcNAc
How it was run: as §1

[23] = target: GalNAc3S(b1-4)GlcNAc3S
How it was run: as §1

[24] = target: GalNAc3S(b1-4)[Fuc(a1-3)]GlcNAc
How it was run: as §1

[25] = target: GalNAc4S6S(b1-4)GlcNAc
How it was run: as §1

[26] = target: GalNAc6S(b1-4)GlcNAc
How it was run: as §1

[27] = target: Glc(a1-4)Glc
How it was run: as §1

[28] = target: Glc(a1-4)Glc(a1-4)Glc(a1-4)Glc
How it was run: as §1

[29] = target: Glc(a1-6)Glc(a1-6)Glc
How it was run: as §1

[30] = target: Glc(a1-6)Glc(a1-6)Glc(a1-6)Glc
How it was run: as §1

[31] = target: Glc(b1-4)Glc
How it was run: as §1

[32] = target: Glc(b1-6)Glc
How it was run: as §1

[33] = target: GlcA(b1-3)Gal
How it was run: as §1

[34] = target: GlcA(b1-3)GlcNAc
How it was run: as §1

[35] = target: GlcA(b1-6)Gal
How it was run: as §1

[36] = target: GlcA3S(b1-3)Gal(b1-4)GlcNAc(b1-2)Man
How it was run: as §1

[37] = target: GlcA3S(b1-3)Gal(b1-4)GlcNAc(b1-3)Gal(b1-4)Glc
How it was run: as §1

B1: SRA-1 (Homo sapiens), P21757 (protein)
chain: MEQWDHFHNQQEDTDSCSESVKFDARSMTALLPPNPKNSPSLQEKLKSFKAALIALYLLVFAVLIPLIGIVAAQLLKWETKNCSVSSTNANDITQSLTGKGNDSEEEMRFQEVFMEHMSNMEKRIQHILDMEANLMDTEHFQNFSMTTDQRFNDILLQLSTLFSSVQGHGNAIDEISKSLISLNTTLLDLQLNIENLNGKIQENTFKQQEEISKLEERVYNVSAEIMAMKEEQVHLEQEIKGEVKVLNNITNDLRLKDWEHSQTLRNITLIQGPPGPPGEKGDRGPTGESGPRGFPGPIGPPGLKGDRGAIGFPGSRGLPGYAGRPGNSGPKGQKGEKGSGNTLTPFTKVRLVGGSGPHEGRVEILHSGQWGTICDDRWEVRVGQVVCRSLGYPGVQAVHKAAHFGQGTGPIWLNEVFCFGRESSIEECKIRQWGTRACSHSEDAGVTCTL
glycan array binding signal (z-score) [1]: 0.392
glycan array binding signal (z-score) [2]: -0.142
glycan array binding signal (z-score) [3]: 0.335
glycan array binding signal (z-score) [4]: -0.028
glycan array binding signal (z-score) [5]: 0.136
glycan array binding signal (z-score) [6]: 0.339
glycan array binding signal (z-score) [7]: -0.393
glycan array binding signal (z-score) [8]: 0.272
glycan array binding signal (z-score) [9]: -0.386
glycan array binding signal (z-score) [10]: 1.15
glycan array binding signal (z-score) [11]: -0.081
glycan array binding signal (z-score) [12]: -0.372
glycan array binding signal (z-score) [13]: 0.296
glycan array binding signal (z-score) [14]: 0.258
glycan array binding signal (z-score) [15]: -0.126
glycan array binding signal (z-score) [16]: 1.24
glycan array binding signal (z-score) [17]: -0.006
glycan array binding signal (z-score) [18]: -0.175
glycan array binding signal (z-score) [19]: -0.387
glycan array binding signal (z-score) [20]: -0.142
glycan array binding signal (z-score) [21]: -0.341
glycan array binding signal (z-score) [22]: -0.066
glycan array binding signal (z-score) [23]: 0.296
glycan array binding signal (z-score) [24]: -0.274
glycan array binding signal (z-score) [25]: 0.43
glycan array binding signal (z-score) [26]: -0.594
glycan array binding signal (z-score) [27]: -0.121
glycan array binding signal (z-score) [28]: -0.104
glycan array binding signal (z-score) [29]: -0.085
glycan array binding signal (z-score) [30]: 0.295
glycan array binding signal (z-score) [31]: -0.089
glycan array binding signal (z-score) [32]: -0.651
glycan array binding signal (z-score) [33]: -0.139
glycan array binding signal (z-score) [34]: 0.159
glycan array binding signal (z-score) [35]: -0.198
glycan array binding signal (z-score) [36]: -0.242
glycan array binding signal (z-score) [37]: 0.861

— the supplement of paper PMC8728848
